Measurements as given in PubChem BioAssay AID2060605 (Molecular Pharmacology Branch, DTP, NCI, 2025).
A number of entries come with more than one value. The list is limited to them. There may be further records. Results that share an entry repeat one measurement across runs, samples, wells, individuals or studies. Brackets with × give the number of equal values in this list.

Test system: 947758-054-R-J2-PDC spheroid growth, percent test/control
Test: Anticancer human tumor 947758-054-R-J2-PDC patient-derived colon adenocarcinoma cell line growth inhibition [CLK]
Settings: for viability, T/C: stronger effect = lower value, spheroids with HUVEC and MSC
Description: A high-throughput screen of multi-cell type tumor spheroids was designed to identify active combinations of […] and targeted small molecules. Complex spheroids include a stromal component modeled by human endothelial cells (HUVEC) and fibroblasts modeled by human mesenchymal stem cells (MSCs). The concentration ranges selected for each drug and investigational agent were based upon clinically achievable concentrations if the clinical Cmax of the agent was known.
Compounds. The drugs and investigational agents: cirtuvivint (SM08502; NSC835563), CC-671 (NSC850746), vemurafenib (NSC761431), tapotoclax (NSC804041), sotorasib (NSC818433), adagrasib (NSC831453), MRTX-1133 (NSC836407), BAY2416964 (NSC825713), copanlisib (NSC816437), inavolisib (NSC800729), abemaciclib (NSC768073), osimertinib (NSC779217), entinostat (NSC756642), eltanexor (KPT-8602, NSC794443), venetoclax (NSC766270), ceralasertib (NSC777638), bortezomib (NSC756655), olaparib (NSC753686), talazoparib (NSC767125), alisertib (NSC759677), peposertib (NSC802822), gemcitabine (NSC613327), 5-fluorouracil (NSC19893), SN-38 (NSC673596), oxaliplatin (NSC266046), paclitaxel (NSC125973), and doxorubicin (NSC123127), were obtained from the National Cancer Institute (NCI) Developmental Therapeutics Program Chemical Repository. The FDA-approved anticancer drug set is available from the Developmental Therapeutics Program at https://dtp.cancer.gov/organization/dscb/obtaining/available plates.htm. […] The stock solutions were prepared in dimethyl sulfoxide (DMSO, Sigma-Aldrich, St. Louis, MO, cat. D2650), except for the platinum complexes which were prepared in saline (Quality Biological, Gaithersburg, MD, cat. 114-055-101), at 800-fold the tested concentration and stored at -70 degrees C prior to their use. All drugs and investigational agents were tested over a range starting from a high concentration at or near the clinical Cmax and decreasing in half-log increments. If the clinical Cmax for an agent had not been determined, the highest concentration tested was 10 microM.
Cell Culture. All cells were maintained in an incubator at 37 degrees C and 5% CO2 with 95% humidity. The PDC lines were cultured according to standard operating procedures established by the NCI PDMR. Briefly, all PDCs were thawed and cultured in Matrigel-coated flasks prepared with a working solution of 1X Ham's F-12 nutrient mix, without supplementation (Invitrogen, Waltham, MA, cat. 11765054), 100 U/mL penicillin-streptomycin (Invitrogen, cat. 15140122), and 2.5% Matrigel (Corning Inc., Corning, NY, cat. 354248) for the first three passages. The 947758-054-R-J2-PDC line was cultured in 6B/Colon 1A media, which includes advanced DMEM/F-12 (Thermo Fisher Scientific, cat. 12634028), 10 mM HEPES (Thermo Fisher Scientific, cat. 15630080), 1X GlutaMAX supplement (Thermo Fisher Scientific, cat. 35050061), 0.1 mg/mL primocin (InvivoGen, cat. ant-pm-2), 10% defined fetal bovine serum, heat inactivated (HyClone Laboratories Inc., cat. SH30070.03HI), 1.25 mM N-Acetyl-L-cysteine (Sigma-Aldrich, cat. A9165), 10 mM nicotinamide (Sigma-Aldrich, cat. N0636), 1X B-27 supplement (Thermo Fisher Scientific, cat. 17504044), 1X N-2 supplement (Thermo Fisher Scientific, cat. 17502048), and 10 microM Y-27632 dihydrochloride (Tocris Bioscience, cat. 1254). […]
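Also: spheroids exposed to compounds for one week before readout.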

Row | SMILES | viability, T/C (compound alone 0.0316 µM) | viability, T/C (compound alone 0.1 µM) | viability, T/C (compound alone 0.316 µM) | IC50 (compound alone, run of 09/19/2023)
1 | CN1CCN(c2cc(C(=O)Nc3cc4cc(-c5cnn(C)c5)ccc4cn3)ccn2)CC1 | 125, 119, 110, 105, 122 (2×), 154, 113, 133, 106, 115, 100% | 157, 139, 167, 156, 178, 159, 147, 155, 176, 183, 137, 170% | – | –
2 | CNC(=O)c1ccc(Nc2nc(OC3CCCC3)c3c(-c4ccc5nc(C)oc5c4)c[nH]c3n2)c(OC)c1 | – | 57.4, 65.5, 62.7, 64.5, 61.9, 66, 42.8, 68.8, 61.7, 38, 67.9, 63.8% | 76.1, 73.5, 79.4, 89.7, 92.9, 81.1, 70, 81.6, 97.6, 77.2, 66.2, 74% | 893 nM, 1.72 µM, 1.56 µM, 805 nM, 6.76 µM, 2.08 µM, 493 nM, 2.92 µM, 3.9 µM, 3.92 µM, 1.17 µM, 959 nM
